Assay results: the supplement of paper PMC4967469
Lines with a small IC50 respond at low doses; fits outside the tested doses are given as limits. The AUC spans the tested range (256-fold, ending at the top dose) of the same fit; the more sensitive the line, the further below 1. For some assays here: The top dose, if marked as inferred, comes from the curve model; the source does not state it.

Legend:
Experiment in all cases: Viability of human cancer cell lines after 72 h of drug (GDSC screen)
Tubastatin A = compound: CN1CCc2c(c3ccccc3n2Cc2ccc(C(=O)NO)cc2)C1 [Tubastatin A]; conditions: top dose 20 µM
Protocol: (§1)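 Human cancer cell lines in 384-well plates, medium with 10% serum, drug for 72 h over a 256-fold dose range (nine 2-fold or five 4-fold steps up to the top dose). Adherent lines were fixed and stained with the nucleic acid dye Syto60, suspension lines read with resazurin; signal relative to control wells, capped at 0 and 100%. One two-parameter sigmoid per drug and line, fitted in a mixed model over all curves with the slope shared within a line.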

XL-880 = compound: COc1cc2c(Oc3ccc(NC(=O)C4(C(=O)Nc5ccc(F)cc5)CC4)cc3F)ccnc2cc1OCCCN1CCOCC1 [XL-880]; conditions: top dose 5.12 µM; top dose inferred
Protocol: as §1

Temozolomide = compound: Cn1nnc2c(C(N)=O)ncn2c1=O [Temozolomide]; conditions: top dose 30 µM
Protocol: as §1

CI-1040 = compound: O=C(NOCC1CC1)c1ccc(F)c(F)c1Nc1ccc(I)cc1Cl [CI-1040]; conditions: top dose 10 µM; top dose inferred
Protocol: as §1

IPA-3 = compound: Oc1ccc2ccccc2c1SSc1c(O)ccc2ccccc12 [IPA-3]; conditions: top dose 32 µM; top dose inferred
Protocol: as §1

Cell Line | AUC (Tubastatin A) | IC50 (Tubastatin A) | AUC (XL-880) | IC50 (XL-880) | AUC (Temozolomide) | IC50 (Temozolomide) | AUC (CI-1040) | IC50 (CI-1040) | AUC (IPA-3) | IC50 (IPA-3)
SUIT-2 (pancreas, adherent) | 0.738 | 6.24 µM | 0.489 | 0.298 µM | 0.985 | > 30 µM | 0.676 | 2 µM | 0.984 | > 32 µM
Saos-2 (osteosarcoma, adherent) | 0.981 | > 20 µM | 0.981 | > 5.12 µM | 0.967 | > 30 µM | 0.928 | > 10 µM | 0.914 | > 32 µM
HT-3 (cervix, adherent) | 0.967 | > 20 µM | 0.701 | 1.19 µM | 0.981 | > 30 µM | 0.898 | > 10 µM | 0.937 | > 32 µM
EFO-27 (ovary, adherent) | 0.899 | > 20 µM | 0.671 | 1.08 µM | 0.95 | > 30 µM | 0.758 | 4.29 µM | 0.749 | 12.7 µM
HCC70 (breast, adherent) | 0.941 | > 20 µM | 0.81 | 2.63 µM | 0.974 | > 30 µM | 0.847 | 7.18 µM | 0.988 | > 32 µM
CAL-85-1 (breast, adherent) | 0.958 | > 20 µM | 0.84 | 5.06 µM | 0.962 | > 30 µM | 0.884 | > 10 µM | 0.686 | 7.76 µM
NCI-H1703 (lung adenocarcinoma, adherent) | 0.977 | > 20 µM | 0.696 | 1.3 µM | 0.954 | > 30 µM | 0.913 | > 10 µM | 0.975 | > 32 µM
COLO-205 (large intestine, suspension) | 0.919 | > 20 µM | 0.712 | 1.26 µM | 0.98 | > 30 µM | 0.619 | 1.32 µM | 0.913 | > 32 µM
SAT (head and neck, adherent) | 0.942 | > 20 µM | 0.663 | 1.17 µM | 0.954 | > 30 µM | 0.75 | 5 µM | 0.973 | > 32 µM
AN3-CA (endometrium, adherent) | 0.983 | > 20 µM | 0.575 | 0.524 µM | 0.965 | > 30 µM | 0.82 | 6.44 µM | 0.714 | 8.57 µM
NCI-H2227 (small cell lung carcinoma, semi-adherent) | 0.955 | > 20 µM | 0.46 | 0.246 µM | 0.975 | > 30 µM | 0.949 | > 10 µM | 0.903 | > 32 µM
G-402 (soft tissue, adherent) | 0.959 | > 20 µM | 0.521 | 0.371 µM | 0.974 | > 30 µM | 0.942 | > 10 µM | 0.899 | > 32 µM
CCF-STTG1 (glioma, adherent) | 0.988 | > 20 µM | 0.501 | 0.321 µM | 0.987 | > 30 µM | 0.983 | > 10 µM | 0.977 | > 32 µM
H2373 (mesothelioma, adherent) | 0.963 | > 20 µM | 0.67 | 1.08 µM | 0.981 | > 30 µM | 0.854 | > 10 µM | 0.983 | > 32 µM
PE/CA-PJ15 (head and neck, adherent) | 0.985 | > 20 µM | 0.682 | 1.08 µM | 0.955 | > 30 µM | 0.666 | 1.88 µM | 0.89 | > 32 µM
HOS (osteosarcoma, adherent) | 0.992 | > 20 µM | 0.89 | 4.21 µM | 0.99 | > 30 µM | 0.841 | 5.35 µM | 0.658 | 5.05 µM
P12-ICHIKAWA (T-cell lymphoblastic leukaemia, suspension) | 0.858 | 10.8 µM | 0.591 | 0.535 µM | 0.994 | > 30 µM | 0.983 | > 10 µM | 0.955 | > 32 µM
NCI-H1693 (lung adenocarcinoma, adherent) | 0.925 | > 20 µM | 0.805 | 4.8 µM | 0.964 | > 30 µM | 0.727 | 4.18 µM | 0.976 | > 32 µM
KYSE-510 (oesophagus, adherent) | 0.989 | > 20 µM | 0.769 | 1.62 µM | 0.893 | 25.2 µM | 0.852 | 5.78 µM | 0.791 | 11.7 µM
UM-UC-3 (bladder, adherent) | 0.937 | > 20 µM | 0.59 | 0.556 µM | 0.984 | > 30 µM | 0.86 | 7.58 µM | 0.896 | > 32 µM
MDA-MB-453 (breast, adherent) | 0.821 | 13.3 µM | 0.886 | > 5.12 µM | 0.983 | > 30 µM | 0.958 | > 10 µM | 0.912 | > 32 µM
5637 (bladder, adherent) | 0.933 | > 20 µM | 0.599 | 0.581 µM | 0.978 | > 30 µM | 0.931 | > 10 µM | 0.871 | 25.3 µM
SKN-3 (head and neck, adherent) | 0.979 | > 20 µM | 0.708 | 1.39 µM | 0.95 | > 30 µM | 0.742 | 3.54 µM | 0.97 | > 32 µM
HCC-44 (lung adenocarcinoma, adherent) | 0.83 | 12.2 µM | 0.562 | 0.47 µM | 0.985 | > 30 µM | 0.688 | 2.08 µM | 0.786 | 13.5 µM
PANC-08-13 (pancreas, adherent) | 0.983 | > 20 µM | 0.556 | 0.475 µM | 0.968 | > 30 µM | 0.878 | > 10 µM | 0.982 | > 32 µM
JHH-4 (liver, adherent) | 0.961 | > 20 µM | 0.493 | 0.306 µM | 0.976 | > 30 µM | 0.901 | > 10 µM | 0.839 | 21.8 µM
